Binding data for ten molecules are collected here from publication PMC10372406.

Amino acid sequences for entries named in this document (tags omitted). A change or cut given only in a name is not applied to a line headed by its entry.
UniProt Q15173: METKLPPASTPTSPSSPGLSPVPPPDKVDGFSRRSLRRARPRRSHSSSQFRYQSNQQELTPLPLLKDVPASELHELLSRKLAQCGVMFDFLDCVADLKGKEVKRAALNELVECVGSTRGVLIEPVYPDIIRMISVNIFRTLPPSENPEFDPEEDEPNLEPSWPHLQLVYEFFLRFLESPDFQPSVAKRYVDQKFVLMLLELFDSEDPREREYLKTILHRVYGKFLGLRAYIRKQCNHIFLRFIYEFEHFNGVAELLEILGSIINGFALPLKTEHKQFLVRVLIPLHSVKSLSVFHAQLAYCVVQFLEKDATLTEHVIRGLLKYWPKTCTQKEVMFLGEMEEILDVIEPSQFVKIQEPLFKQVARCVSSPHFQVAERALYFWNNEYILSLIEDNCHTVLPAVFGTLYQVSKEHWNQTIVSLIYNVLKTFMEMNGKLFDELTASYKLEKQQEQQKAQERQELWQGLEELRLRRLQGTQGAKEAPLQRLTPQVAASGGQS
UniProt Q9WVC6: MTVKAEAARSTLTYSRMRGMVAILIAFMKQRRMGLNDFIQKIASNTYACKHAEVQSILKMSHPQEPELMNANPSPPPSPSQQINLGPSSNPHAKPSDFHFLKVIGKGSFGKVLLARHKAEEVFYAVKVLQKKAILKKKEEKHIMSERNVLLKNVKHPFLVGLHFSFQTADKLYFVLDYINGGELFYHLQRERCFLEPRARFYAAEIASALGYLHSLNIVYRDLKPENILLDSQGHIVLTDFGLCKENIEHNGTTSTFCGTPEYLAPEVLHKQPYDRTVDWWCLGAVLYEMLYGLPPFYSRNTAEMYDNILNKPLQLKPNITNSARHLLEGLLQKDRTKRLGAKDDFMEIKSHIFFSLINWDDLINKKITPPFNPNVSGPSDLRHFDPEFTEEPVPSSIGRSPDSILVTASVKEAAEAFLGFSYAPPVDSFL
UniProt P23443: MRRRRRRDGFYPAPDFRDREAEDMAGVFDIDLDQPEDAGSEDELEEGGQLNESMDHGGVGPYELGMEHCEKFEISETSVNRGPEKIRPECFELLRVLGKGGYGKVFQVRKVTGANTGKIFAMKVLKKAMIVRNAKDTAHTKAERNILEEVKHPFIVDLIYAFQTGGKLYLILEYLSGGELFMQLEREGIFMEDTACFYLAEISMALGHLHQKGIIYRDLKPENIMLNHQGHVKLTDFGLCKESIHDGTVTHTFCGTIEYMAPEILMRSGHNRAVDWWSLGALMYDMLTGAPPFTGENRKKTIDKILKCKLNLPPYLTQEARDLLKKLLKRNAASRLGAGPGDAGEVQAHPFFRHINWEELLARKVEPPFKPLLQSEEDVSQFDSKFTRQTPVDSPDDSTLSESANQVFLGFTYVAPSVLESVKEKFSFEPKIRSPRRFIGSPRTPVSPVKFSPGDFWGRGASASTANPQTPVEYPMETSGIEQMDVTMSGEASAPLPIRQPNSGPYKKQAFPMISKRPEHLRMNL
UniProt P31749: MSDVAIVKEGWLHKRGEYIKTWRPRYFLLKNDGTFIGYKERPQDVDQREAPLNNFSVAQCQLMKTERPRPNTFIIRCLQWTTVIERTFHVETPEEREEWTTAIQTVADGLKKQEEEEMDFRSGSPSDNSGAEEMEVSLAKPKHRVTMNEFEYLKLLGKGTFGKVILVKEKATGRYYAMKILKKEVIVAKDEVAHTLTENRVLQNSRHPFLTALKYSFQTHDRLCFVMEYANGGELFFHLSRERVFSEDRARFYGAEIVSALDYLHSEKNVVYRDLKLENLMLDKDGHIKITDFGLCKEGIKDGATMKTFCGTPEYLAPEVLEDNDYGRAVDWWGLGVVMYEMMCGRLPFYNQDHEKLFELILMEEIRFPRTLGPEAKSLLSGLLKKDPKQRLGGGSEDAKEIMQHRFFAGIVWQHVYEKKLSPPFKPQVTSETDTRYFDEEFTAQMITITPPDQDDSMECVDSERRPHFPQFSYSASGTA

Read-outs that look alike come from different tables or passages of the source. These are yes or no findings as the source states them, for the method shown. Binding seen in cells or lysates may run through a third protein. Some results given as binding are weak or reduced against the parent protein; the word gives no strength. For some assays here: Sequences can lack the tags named with a protein.

The target in experiment [1] is T1, Strep-PP5 WT (active) (UniProt P53041).
T1 sequence: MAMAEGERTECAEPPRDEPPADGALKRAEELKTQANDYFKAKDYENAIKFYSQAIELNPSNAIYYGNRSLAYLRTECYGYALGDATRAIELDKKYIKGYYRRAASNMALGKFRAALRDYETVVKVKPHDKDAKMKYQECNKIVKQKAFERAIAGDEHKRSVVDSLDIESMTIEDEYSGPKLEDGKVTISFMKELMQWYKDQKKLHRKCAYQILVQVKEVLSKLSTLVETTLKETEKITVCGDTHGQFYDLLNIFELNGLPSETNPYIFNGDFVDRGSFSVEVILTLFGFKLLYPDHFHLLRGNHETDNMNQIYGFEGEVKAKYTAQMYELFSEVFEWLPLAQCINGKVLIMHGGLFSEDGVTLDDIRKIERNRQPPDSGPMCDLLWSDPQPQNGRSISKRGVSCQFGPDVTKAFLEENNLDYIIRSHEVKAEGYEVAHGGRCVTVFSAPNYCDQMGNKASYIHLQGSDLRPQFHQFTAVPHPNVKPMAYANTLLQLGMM
The experiment is described as follows: co-IP; Strep-PP5 captured on Strep-Tactin XT Superflow from lysates of transfected 293T cells, eluted with buffer BXT (50 mM biotin); western blot. (In general: In western blotting, separated proteins are transferred to a membrane and probed.)

The target of experiment [2] is T2, PP2A regulatory subunit B55γ, FLAG-tagged (B55-FL) (UniProt Q9Y2T4).
T2 sequence: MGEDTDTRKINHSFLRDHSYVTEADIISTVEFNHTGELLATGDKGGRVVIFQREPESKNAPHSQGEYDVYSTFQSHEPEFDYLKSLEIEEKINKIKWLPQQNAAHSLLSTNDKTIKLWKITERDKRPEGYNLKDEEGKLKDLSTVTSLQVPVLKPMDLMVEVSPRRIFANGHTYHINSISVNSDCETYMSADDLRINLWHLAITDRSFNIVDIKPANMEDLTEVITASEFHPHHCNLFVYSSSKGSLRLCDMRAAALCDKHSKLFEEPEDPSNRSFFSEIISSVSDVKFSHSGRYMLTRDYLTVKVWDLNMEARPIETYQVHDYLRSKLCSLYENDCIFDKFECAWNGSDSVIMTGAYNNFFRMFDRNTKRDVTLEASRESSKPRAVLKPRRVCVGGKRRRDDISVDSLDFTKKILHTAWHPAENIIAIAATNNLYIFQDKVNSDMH
The experiment is described as follows: co-IP; FLAG-tagged bait precipitated with FLAG magnetic beads from lysates of transfected 293T cells (TENT 1%); western blot.

Experiment [3] addresses T3, PP2A regulatory subunit B55δ, FLAG-tagged (B55-FL) (UniProt Q66LE6).
T3 sequence: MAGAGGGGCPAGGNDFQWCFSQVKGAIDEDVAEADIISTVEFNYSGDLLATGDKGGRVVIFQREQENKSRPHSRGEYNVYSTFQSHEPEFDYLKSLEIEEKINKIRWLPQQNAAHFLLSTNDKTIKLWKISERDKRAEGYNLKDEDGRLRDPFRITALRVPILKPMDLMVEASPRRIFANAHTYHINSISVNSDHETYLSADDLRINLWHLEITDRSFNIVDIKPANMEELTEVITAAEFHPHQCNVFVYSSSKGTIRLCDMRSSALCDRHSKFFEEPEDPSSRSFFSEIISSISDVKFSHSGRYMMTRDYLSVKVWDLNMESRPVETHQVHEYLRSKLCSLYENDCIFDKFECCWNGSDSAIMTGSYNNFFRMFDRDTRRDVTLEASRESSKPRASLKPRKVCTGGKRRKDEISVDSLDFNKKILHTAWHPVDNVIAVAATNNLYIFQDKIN
The description is as above.

In experiment [4] the target is PP2A regulatory subunit B56β, FLAG-tagged (B56-FL) (UniProt Q15173). The experiment is described as above.
For experiment [5], the target named is T4, Strep-PP5 inactive (PP5-IA, N303A/H304A) (UniProt P53041).
T4 sequence: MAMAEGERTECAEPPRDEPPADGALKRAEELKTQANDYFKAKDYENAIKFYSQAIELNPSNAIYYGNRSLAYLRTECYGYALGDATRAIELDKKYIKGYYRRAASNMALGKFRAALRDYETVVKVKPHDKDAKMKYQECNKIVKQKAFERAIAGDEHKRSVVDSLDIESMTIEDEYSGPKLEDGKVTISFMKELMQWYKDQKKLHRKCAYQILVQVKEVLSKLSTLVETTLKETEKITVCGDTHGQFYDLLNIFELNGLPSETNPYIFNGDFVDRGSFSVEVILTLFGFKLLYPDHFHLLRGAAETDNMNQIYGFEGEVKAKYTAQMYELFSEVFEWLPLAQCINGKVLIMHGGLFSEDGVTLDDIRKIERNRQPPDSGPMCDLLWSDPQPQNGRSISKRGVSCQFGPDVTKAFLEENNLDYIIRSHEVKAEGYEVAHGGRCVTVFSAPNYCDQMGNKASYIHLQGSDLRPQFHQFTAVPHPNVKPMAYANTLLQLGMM
The experiment is described as follows: co-IP; Strep-PP5 captured on Strep-Tactin XT Superflow from lysates of transfected 293T cells, eluted with buffer BXT (50 mM biotin); western blot.

Experiment [6] deals with serum- and glucocorticoid-induced kinase 1, HA-tagged (SGK1-HA) (UniProt Q9WVC6). The experiment is described as follows: co-IP; HA-tagged bait precipitated with HA magnetic beads from lysates of transfected 293T cells (TENT 1%: 50 mM Tris, 150 mM NaCl, 5 mM EDTA, 1% Triton X-100, pH 7.4); western blot.
The target is the same in experiment [7]. The description is as above. This is another data set of the same source.
The target of experiment [8] is T1, Strep-PP5 WT (active). As to the kind of experiment: co-IP; Strep-PP5 captured on Strep-Tactin XT Superflow from lysates of transfected 293T cells, eluted with buffer BXT (50 mM biotin); western blot. This is another data set of the same source.
Experiment [9] has as its target T4, Strep-PP5 inactive (PP5-IA, N303A/H304A). Described as above. This is another data set of the same source.

As to “p70S6K (from UniProt P23443 1-525) (enzyme)”, the binding result with Strep-PP5 WT (active) [1] was “no binding”.

As to “serum- and glucocorticoid-induced kinase 1, HA-tagged (SGK1-HA) (from UniProt Q9WVC6 1-431) (enzyme)”, the binding entry (in experiment [2]; in experiment [3]; in experiment [4]; in the experiment with Strep-PP5 WT (active) [1]; in [5]) was “binds” each time. As for “PP2A regulatory subunit B56β, FLAG-tagged (B56-FL) (from UniProt Q15173 1-497)”, the binding entry in experiment [6] is listed as “binds”. Take “AKT1 (from UniProt P31749 1-480) (enzyme)”: the binding result with Strep-PP5 WT (active) [1] is recorded as “no binding”.

As to “Δ60SGK1-HA (from UniProt Q9WVC6 61-431) (enzyme)”, the binding entry (with Strep-PP5 WT (active) [1]; in experiment [5]) was “binds” throughout.

B1: FL-PP5 (FLAG-tagged PP5, WT) (enzyme, UniProt P53041 1-499)
chain: MAMAEGERTECAEPPRDEPPADGALKRAEELKTQANDYFKAKDYENAIKFYSQAIELNPSNAIYYGNRSLAYLRTECYGYALGDATRAIELDKKYIKGYYRRAASNMALGKFRAALRDYETVVKVKPHDKDAKMKYQECNKIVKQKAFERAIAGDEHKRSVVDSLDIESMTIEDEYSGPKLEDGKVTISFMKELMQWYKDQKKLHRKCAYQILVQVKEVLSKLSTLVETTLKETEKITVCGDTHGQFYDLLNIFELNGLPSETNPYIFNGDFVDRGSFSVEVILTLFGFKLLYPDHFHLLRGNHETDNMNQIYGFEGEVKAKYTAQMYELFSEVFEWLPLAQCINGKVLIMHGGLFSEDGVTLDDIRKIERNRQPPDSGPMCDLLWSDPQPQNGRSISKRGVSCQFGPDVTKAFLEENNLDYIIRSHEVKAEGYEVAHGGRCVTVFSAPNYCDQMGNKASYIHLQGSDLRPQFHQFTAVPHPNVKPMAYANTLLQLGMM
With B1, in experiment [7], the binding entry is given as “binds”.

B2: FL-PP5-IA (FLAG-tagged catalytically inactive PP5, N303A/H304A) (enzyme, UniProt P53041 1-499)
chain: MAMAEGERTECAEPPRDEPPADGALKRAEELKTQANDYFKAKDYENAIKFYSQAIELNPSNAIYYGNRSLAYLRTECYGYALGDATRAIELDKKYIKGYYRRAASNMALGKFRAALRDYETVVKVKPHDKDAKMKYQECNKIVKQKAFERAIAGDEHKRSVVDSLDIESMTIEDEYSGPKLEDGKVTISFMKELMQWYKDQKKLHRKCAYQILVQVKEVLSKLSTLVETTLKETEKITVCGDTHGQFYDLLNIFELNGLPSETNPYIFNGDFVDRGSFSVEVILTLFGFKLLYPDHFHLLRGAAETDNMNQIYGFEGEVKAKYTAQMYELFSEVFEWLPLAQCINGKVLIMHGGLFSEDGVTLDDIRKIERNRQPPDSGPMCDLLWSDPQPQNGRSISKRGVSCQFGPDVTKAFLEENNLDYIIRSHEVKAEGYEVAHGGRCVTVFSAPNYCDQMGNKASYIHLQGSDLRPQFHQFTAVPHPNVKPMAYANTLLQLGMM
For B2, in [7], the binding result was “binds”.

B3: CDC37 (protein, UniProt Q16543 1-378)
chain: MVDYSVWDHIEVSDDEDETHPNIDTASLFRWRHQARVERMEQFQKEKEELDRGCRECKRKVAECQRKLKELEVAEGGKAELERLQAEAQQLRKEERSWEQKLEEMRKKEKSMPWNVDTLSKDGFSKSMVNTKPEKTEEDSEEVREQKHKTFVEKYEKQIKHFGMLRRWDDSQKYLSDNVHLVCEETANYLVIWCIDLEVEEKCALMEQVAHQTIVMQFILELAKSLKVDPRACFRQFFTKIKTADRQYMEGFNDELEAFKERVRGRAKLRIEKAMKEYEEEERKKRLGPGGLDPVEVYESLPEELQKCFDVKDVQMLQDAISKMDPTDAKYHMQRCIDSGLWVPNSKASEAKEGEEAGPGDPLLEAVPKTGDEKDVSV
For B3, the binding result (in the experiment with Strep-PP5 WT (active) [8]; in [9]; in experiment [7]) was “binds” each time.

B4: PP2A regulatory subunit B55γ, FLAG-tagged (B55-FL) (protein, UniProt Q9Y2T4 1-447)
chain: MGEDTDTRKINHSFLRDHSYVTEADIISTVEFNHTGELLATGDKGGRVVIFQREPESKNAPHSQGEYDVYSTFQSHEPEFDYLKSLEIEEKINKIKWLPQQNAAHSLLSTNDKTIKLWKITERDKRPEGYNLKDEEGKLKDLSTVTSLQVPVLKPMDLMVEVSPRRIFANGHTYHINSISVNSDCETYMSADDLRINLWHLAITDRSFNIVDIKPANMEDLTEVITASEFHPHHCNLFVYSSSKGSLRLCDMRAAALCDKHSKLFEEPEDPSNRSFFSEIISSVSDVKFSHSGRYMLTRDYLTVKVWDLNMEARPIETYQVHDYLRSKLCSLYENDCIFDKFECAWNGSDSVIMTGAYNNFFRMFDRNTKRDVTLEASRESSKPRAVLKPRRVCVGGKRRRDDISVDSLDFTKKILHTAWHPAENIIAIAATNNLYIFQDKVNSDMH
With B4, the binding entry in [7] is “binds”.

B5: PP2A regulatory subunit B55δ, FLAG-tagged (B55-FL) (protein, UniProt Q66LE6 1-453)
chain: MAGAGGGGCPAGGNDFQWCFSQVKGAIDEDVAEADIISTVEFNYSGDLLATGDKGGRVVIFQREQENKSRPHSRGEYNVYSTFQSHEPEFDYLKSLEIEEKINKIRWLPQQNAAHFLLSTNDKTIKLWKISERDKRAEGYNLKDEDGRLRDPFRITALRVPILKPMDLMVEASPRRIFANAHTYHINSISVNSDHETYLSADDLRINLWHLEITDRSFNIVDIKPANMEELTEVITAAEFHPHQCNVFVYSSSKGTIRLCDMRSSALCDRHSKFFEEPEDPSSRSFFSEIISSISDVKFSHSGRYMMTRDYLSVKVWDLNMESRPVETHQVHEYLRSKLCSLYENDCIFDKFECCWNGSDSAIMTGSYNNFFRMFDRDTRRDVTLEASRESSKPRASLKPRKVCTGGKRRKDEISVDSLDFNKKILHTAWHPVDNVIAVAATNNLYIFQDKIN
Regarding B5, the binding entry in experiment [7] is “binds”.
